In all, about 310,000 compounds went through this assay and about 2,200 (0.71%) showed an effect of 50% or more. The effect is printed as a negative number. The list shows a part of the results.

This is an account of results in publication PMC4336329 (PLoS ONE, 2015).

Chain of human ether-à-go-go-related gene (hERG) potassium channel (Q12809 whole entry, looked up): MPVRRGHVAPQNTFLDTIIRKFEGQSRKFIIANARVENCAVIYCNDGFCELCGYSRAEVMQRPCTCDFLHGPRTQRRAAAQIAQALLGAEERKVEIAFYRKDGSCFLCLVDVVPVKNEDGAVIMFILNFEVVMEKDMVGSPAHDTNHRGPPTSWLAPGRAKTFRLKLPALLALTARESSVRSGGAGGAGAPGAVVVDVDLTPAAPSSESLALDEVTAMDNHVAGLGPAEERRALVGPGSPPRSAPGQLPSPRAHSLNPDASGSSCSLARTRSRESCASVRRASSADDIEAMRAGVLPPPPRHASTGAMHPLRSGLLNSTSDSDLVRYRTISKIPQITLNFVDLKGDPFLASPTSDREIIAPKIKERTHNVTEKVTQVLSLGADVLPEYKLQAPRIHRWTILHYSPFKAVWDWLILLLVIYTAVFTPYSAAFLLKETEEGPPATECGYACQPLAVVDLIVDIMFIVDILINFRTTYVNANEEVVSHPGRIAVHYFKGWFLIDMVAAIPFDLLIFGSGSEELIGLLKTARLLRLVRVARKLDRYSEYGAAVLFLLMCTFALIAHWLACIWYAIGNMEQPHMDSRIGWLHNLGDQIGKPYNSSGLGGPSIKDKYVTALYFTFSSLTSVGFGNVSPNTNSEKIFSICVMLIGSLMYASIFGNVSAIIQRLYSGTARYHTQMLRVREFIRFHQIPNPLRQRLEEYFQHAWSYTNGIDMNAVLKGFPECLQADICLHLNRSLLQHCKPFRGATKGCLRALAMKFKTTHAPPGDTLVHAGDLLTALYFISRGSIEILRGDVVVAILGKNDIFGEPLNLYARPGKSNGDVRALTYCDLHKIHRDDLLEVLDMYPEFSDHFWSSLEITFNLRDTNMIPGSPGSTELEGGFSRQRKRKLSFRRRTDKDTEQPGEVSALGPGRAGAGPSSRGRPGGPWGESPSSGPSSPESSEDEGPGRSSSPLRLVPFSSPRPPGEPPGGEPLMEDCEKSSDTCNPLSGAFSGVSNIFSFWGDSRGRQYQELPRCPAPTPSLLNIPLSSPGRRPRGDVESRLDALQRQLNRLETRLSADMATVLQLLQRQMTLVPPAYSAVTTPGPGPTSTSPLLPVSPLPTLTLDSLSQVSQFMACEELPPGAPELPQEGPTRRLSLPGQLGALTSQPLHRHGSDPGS

The assay concerns the target human ether-à-go-go-related gene (hERG) potassium channel (human, UniProt Q12809). In words: primary screen, population patch clamp on CHO cells stably expressing hERG.
Take `COc1ccccc1N(C)S(=O)(=O)c1ccc(C(=O)OCC(=O)NCc2cccs2)cc1`: the “hERG current change (%, negative = inhibition) at 1uM” value is 6.49%.

Consider `COc1ccc(OC)c2nc(-c3ccc4c(c3)OCO4)ccc12`, for which the “hERG current change (%, negative = inhibition) at 1uM” value was determined as 13.8%.

On to `CC1(C)SC(=S)N(Cc2ccc3c(c2)OCO3)C1N(O)C(=O)NC1CCCCC1` (stereo not drawn), for which the “hERG current change (%, negative = inhibition) at 1uM” value stood at 1.64%.

`CC1CCN(C(=O)CN2C(=O)c3cccc4cccc(c34)C2=O)CC1`: the “hERG current change (%, negative = inhibition) at 1uM” value was determined as 14.7%.

Consider `Cc1ccc(C(=O)O/N=C\c2ccc(N3CCOCC3)c([N+](=O)[O-])c2)cc1`, for which the “hERG current change (%, negative = inhibition) at 1uM” value is listed as 15.7%.

Take `CC12CN(C(=S)Nc3ccccc3)CC(C)(CN(C(=S)Nc3ccccc3)C1)C2=O`: the “hERG current change (%, negative = inhibition) at 1uM” value is listed as 16.4%.

Consider `CCC(Oc1ccccc1)C(=O)NCCOC` (stereo not drawn), for which the “hERG current change (%, negative = inhibition) at 1uM” value amounted to 7.06%.

For the compound `O=c1[nH]c(CSc2nnc(Cc3ccccc3)o2)nc2ccccc12`, the “hERG current change (%, negative = inhibition) at 1uM” value came out at 11.7%.

For `O=C(Nc1ccccc1-c1ccccc1)C1CCCN(c2ncccn2)C1` (stereo not drawn), the “hERG current change (%, negative = inhibition) at 1uM” value was found to be 14.4%.

For `Cc1nn(C)c(C)c1S(=O)(=O)N1CCC(CO)(Cc2ccc(Cl)cc2)CC1`, the “hERG current change (%, negative = inhibition) at 1uM” value is on record as 8.13%.

As for `CCOP(=O)(OCC)C(NC(=O)Nc1cccc(Cl)c1)C(N)=O` (stereo not drawn), the “hERG current change (%, negative = inhibition) at 1uM” value is listed as -8.73%.

On to `COc1cc(C(c2c(C)[nH][nH]c2=O)c2c(C)[nH][nH]c2=O)ccc1OCc1ccc([N+](=O)[O-])cc1`, for which the “hERG current change (%, negative = inhibition) at 1uM” value is given as 15.4%.

In the case of `CCCn1ncc2c(Nc3ccc(C)c(C)c3)ncnc21`, the “hERG current change (%, negative = inhibition) at 1uM” value came to 6.15%.

With `N#C/C(C(=O)N1CCOCC1)=C1\Nc2ccccc2S1`, the “hERG current change (%, negative = inhibition) at 1uM” value came out at 6.67%.

With `O=S(=O)(Nc1cccc2c1CCCC2)c1ccc(Cl)cc1`, the “hERG current change (%, negative = inhibition) at 1uM” value is listed as 5.33%.

Consider `CCOC(=O)COc1c(Cl)cc(C2NC(=S)NC(c3ccccc3)=C2C(C)=O)cc1OCC` (stereo not drawn), for which the “hERG current change (%, negative = inhibition) at 1uM” value was found to be 4.09%.

With `CN(Cc1cccs1)C(=O)Cn1cnc2ccccc2c1=O`, the “hERG current change (%, negative = inhibition) at 1uM” value turned out to be 5.31%.

Regarding `Nc1nonc1-c1noc(CCCN2C(=O)c3ccccc3C2=O)n1`, the “hERG current change (%, negative = inhibition) at 1uM” value is given as -5.33%.

Consider `COC(=O)c1cc(Br)c(=O)n(CCN(C(C)C)C(C)C)c1`, for which the “hERG current change (%, negative = inhibition) at 1uM” value was determined as 0.568%.

Take `Cc1ccc(C(=O)COC(=O)C2C3C=CC(C3)C2C(=O)OCC(=O)c2ccc(C)c(C)c2)cc1C` (stereo not drawn): the “hERG current change (%, negative = inhibition) at 1uM” value turned out to be 11.2%.

Regarding `Cc1oc(=O)c(NC(=O)c2ccccc2)cc1C(N)=O`, the “hERG current change (%, negative = inhibition) at 1uM” value is 13.4%.

With `CCOC(=O)C1=NNC2(CC(=O)N(c3cccc(C)c3)C2=O)C1` (stereo not drawn), the “hERG current change (%, negative = inhibition) at 1uM” value worked out at 11.1%.

Regarding `CCOc1ccccc1/C=N/Nc1nc2ccccc2o1`, the “hERG current change (%, negative = inhibition) at 1uM” value is 14.2%.

With `CCn1c(CNC(=O)c2ccc(Cl)cc2)nnc1SCC(=O)NC1=NCCS1`, the “hERG current change (%, negative = inhibition) at 1uM” value came to 9.77%.

Regarding `CC1CN(c2nc(Nc3ccccc3)nc(N)c2[N+](=O)[O-])CC(C)O1` (stereo not drawn), the “hERG current change (%, negative = inhibition) at 1uM” value came out at 4.17%.

In the case of `CSc1nnc(NC(=O)CCc2ccccc2)s1`, the “hERG current change (%, negative = inhibition) at 1uM” value was -1.05%.

As for `CSc1nsc(SCc2ccc(Cl)cc2)n1`, the “hERG current change (%, negative = inhibition) at 1uM” value is 12.3%.

With `N#Cc1ncc(C(F)(F)F)cc1Sc1ccc(N)cc1`, the “hERG current change (%, negative = inhibition) at 1uM” value came to 1.58%.

Consider `N#CC1=C2SCN(Cc3ccco3)CN2C(=O)CC1c1cccc2ccccc12` (stereo not drawn), for which the “hERG current change (%, negative = inhibition) at 1uM” value is on record as -2.77%.

Take `CS(=O)(=O)c1ccccc1C(=O)Nc1cc(Cl)ccc1-n1cncn1`: the “hERG current change (%, negative = inhibition) at 1uM” value is recorded as 11.8%.

For the compound `O=C(NN1C(=O)/C(=C/c2cccc(O)c2)SC1=S)c1ccccc1O`, the “hERG current change (%, negative = inhibition) at 1uM” value is recorded as 9.58%.

As for `O=C(/C=C/c1ccc([N+](=O)[O-])cc1)NCCc1ccc(F)cc1`, the “hERG current change (%, negative = inhibition) at 1uM” value is on record as -16.2%.

Consider `CCn1c(CSc2nnc(-c3ccncc3)n2CCOC)nc2cc(C(=O)O)ccc21`, for which the “hERG current change (%, negative = inhibition) at 1uM” value is recorded as 13.8%.

As to `CCOC(=O)C1=C(COC(=O)Cc2ccc(Cl)cc2)NC(=O)NC1C` (stereo not drawn), the “hERG current change (%, negative = inhibition) at 1uM” value was 0.0072%.

As to `COc1ccccc1NS(=O)(=O)c1cc2c(cc1C)NC(=O)CO2`, the “hERG current change (%, negative = inhibition) at 1uM” value is recorded as -0.0846%.

As for `Cc1ccc(NC(=O)c2ccc3ccccc3n2)cc1S(=O)(=O)N1CCOCC1`, the “hERG current change (%, negative = inhibition) at 1uM” value was 14%.

For `CC1CCN(C(=O)c2[nH]cnc2C(=O)N2CCN(C(=O)OC(C)(C)C)CC2)CC1`, the “hERG current change (%, negative = inhibition) at 1uM” value is listed as 16.7%.

Take `C1=C(CCNc2ncnc3c2cnn3-c2ccccc2)CCCC1`: the “hERG current change (%, negative = inhibition) at 1uM” value was 9.5%.

For `Cc1cc2c(cc1S(=O)(=O)N1CCCC1)n(C)c(=O)c(=O)n2C`, the “hERG current change (%, negative = inhibition) at 1uM” value is reported as 2.73%.

As for `COC(=O)c1c(NC(=O)C(Cl)Cl)sc2c1C(C(=O)OC)CC2` (stereo not drawn), the “hERG current change (%, negative = inhibition) at 1uM” value is given as 3.77%.

On to `COc1ccc(N(CC(=O)Nc2cccc(SC)c2)S(C)(=O)=O)cc1`, for which the “hERG current change (%, negative = inhibition) at 1uM” value is recorded as 4.61%.

Take `COc1ccc(C(=O)/C=C/Nc2ccc([N+](=O)[O-])cc2C)c(OC)c1`: the “hERG current change (%, negative = inhibition) at 1uM” value is 4.32%.

For the compound `COc1ccccc1CN1CCNC(=O)C1CC(=O)NCCc1cnccn1` (stereo not drawn), the “hERG current change (%, negative = inhibition) at 1uM” value amounted to 14%.

Take `Nc1nc(Cl)cc(N2CCCC2)n1`: the “hERG current change (%, negative = inhibition) at 1uM” value is -2.19%.

Turning to `Cc1cc(NC(=O)C23CC4CC(C2)CC(n2cnc([N+](=O)[O-])n2)(C4)C3)no1`, the “hERG current change (%, negative = inhibition) at 1uM” value is given as -8.98%.

Take `CCOP(=O)(c1ccc(N(C)C)cc1)C(O)c1ccccc1` (stereo not drawn): the “hERG current change (%, negative = inhibition) at 1uM” value is reported as 12.1%.

With `CCOc1ccc(C(=O)Nc2ccccc2N2CCOCC2)cc1`, the “hERG current change (%, negative = inhibition) at 1uM” value is given as 6.46%.

On to `COC(=O)CCSC(=S)N1CCOCC1`, for which the “hERG current change (%, negative = inhibition) at 1uM” value is 7.16%.

Take `COCCC1CCCCN1C(=O)c1ccc(OC)c(OC2CCN(C(C)=O)CC2)c1` (stereo not drawn): the “hERG current change (%, negative = inhibition) at 1uM” value was determined as 9.84%.

For `COc1ccc(Nc2ncc3c(n2)CC(c2ccccc2)CC3=O)cc1` (stereo not drawn), the “hERG current change (%, negative = inhibition) at 1uM” value is on record as -2.12%.

Turning to `CCOc1ccc2nc(NS(=O)(=O)c3ccc4c(c3)n(C)c(=O)n4C)sc2c1`, the “hERG current change (%, negative = inhibition) at 1uM” value was determined as 17.8%.

For the compound `CCOC(=O)C1(Cc2ccccc2)CCN(Cc2cccn2-c2nccs2)CC1`, the “hERG current change (%, negative = inhibition) at 1uM” value is listed as -69.8%.

As for `COc1ccccc1OCCNC(=O)/C=C/c1ccc([N+](=O)[O-])cc1`, the “hERG current change (%, negative = inhibition) at 1uM” value is given as -9.26%.

Turning to `COC(=O)CSC1=C(C#N)C(c2sccc2C)CC(=O)N1` (stereo not drawn), the “hERG current change (%, negative = inhibition) at 1uM” value is 6.9%.

For `C=C(C)Cn1c(SCC(=O)NCc2ccco2)nc2sc3c(c2c1=O)CCC3`, the “hERG current change (%, negative = inhibition) at 1uM” value worked out at 4.23%.

For the compound `Cc1cc(O)ccc1-c1cnc2ccccc2n1`, the “hERG current change (%, negative = inhibition) at 1uM” value is given as 5.99%.

In the case of `Cc1nn(C/C(C#N)=N\O)c(C)[n+]1N.[Cl-]`, the “hERG current change (%, negative = inhibition) at 1uM” value is listed as 11.8%.
